According to PubChem BioAssay AID504832 (National Center for Advancing Translational Sciences (NCATS), 2011):
In all, about 310,000 compounds went through this assay and about 18,000 (5.8%) were called active. This list was built around the results that the source calls inconclusive (neither active nor inactive); the mix of calls is not that of the screen. Calls follow the shape of the dose curve; as a rule, active = well fitted inhibition curve with a large enough effect; inconclusive = small, poorly fitted or top-dose-only effect, or another doubt; inactive = no such curve, though single readings can be large or run the other way. No potency is given beside an inconclusive call; the fits are too rough.

Experiment: Primary qHTS for delayed death inhibitors of the malarial parasite plastid, 48 hour incubation
Conditions: P. falciparum luciferase growth in erythrocytes; series mostly up to 28.7 µM
In short: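 Growth was read as firefly luciferase luminescence after a 48 h, 37 C, 5% CO2 exposure of compounds to reporter-bearing P. falciparum cultures (0.1% parasitemia, 2% hematocrit final) in Albumax-supplemented RPMI 1640.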
% is scaled to controls: 0 for no effect and ±100 for the full control effect; potency is read from the fitted curve at half-maximal effect; tags tell the direction and shape of the fitted curve.

| Compound | Potency | activity change, negative = inhibition |
| --- | --- | --- |
| CCCCn1nc(C(=O)N(C)CC(=O)Nc2cccc(F)c2)c2ccccc2c1=O | inconclusive [inhibitor, single point] |  |
| CCCCCCCN1C=CC(=O)CC1 | inconclusive [inhibitor, partial curve, poor fit] |  |
| CC1(NC(=O)Cc2ccc(Cl)c(Cl)c2)CCS(=O)(=O)C1 (stereo unspecified) | inconclusive [inhibitor, single point] |  |
| Cc1cc(N2CCOCC2)nc2ccc(NC(=O)CCC(=O)N3CCC4(CC3)OCCO4)cc12 | inconclusive [inhibitor, partial curve, poor fit] |  |
| Cc1cc(N2CCN(C)CC2)nc2ccc(NC(=S)NCCC(C)C)cc12 |  | inactive: 9.52% [at 0.00184 µM] |
| O=C(CNC1CCCCCC1)Nc1ccccc1N1CCCCC1 | inconclusive [inhibitor, single point] |  |
| COc1ccc2c(c1)c1ncn(Cc3ccco3)c(=O)c1n2C | inconclusive [inhibitor, partial curve] |  |
| Cc1ccc(CCNC(=O)c2nnn(-c3cc(C)cc(C)c3)c2N)cc1 | inconclusive [inhibitor, partial curve, poor fit] |  |
| CCC1CCCCN1C(=O)CCc1nnc(C2CCCCC2)o1 (stereo unspecified) | inactive |  |
| CCCCNC(=S)N(C)/N=C/c1ccc(OCc2ccc(C(=O)OC)cc2)c(OC)c1 | inconclusive [inhibitor, single point] |  |
| CCOC(=O)C1CCCN(C(=O)/C=C/c2cc(OC)c(OC)c(OC)c2)C1 (stereo unspecified) | inconclusive [inhibitor, partial curve] |  |
| Cn1c(-c2cccc(Br)c2)cnc1NCc1ccccc1O | inconclusive [inhibitor, partial curve, poor fit] |  |
| COc1cc(CN2CCN(Cc3cccc(OC)c3OC)CC2)cc(OC)c1 |  | inactive: 0.836% [at 0.00184 µM] |
| O=C(O)c1ccc(S(=O)(=O)NCc2ccc3c(c2)OCO3)cc1 | inactive |  |
| Cc1ccccc1NC(=O)/C=C/c1ccc([N+](=O)[O-])s1 | active: 7.38 µM |  |
| Cc1cccc(C)c1OCc1cc(C(=O)N(C)CCc2ccccn2)no1 | inactive |  |
| CC(C)N(Cc1nc(-c2ccccc2)no1)C(=O)CN1C(=O)c2ccccc2C1=O | inconclusive [inhibitor, single point] |  |
| CC(C)n1ncc2c(C(=O)O)cc(C3CC3)nc21 | inactive |  |
| COc1cc(/C=C2\C(=O)NC(=O)N(c3ccc(C)cc3)C2=O)cc(OC)c1O | inactive |  |
| COc1ccc(NC(=O)Nc2cccc3ccccc23)cc1S(N)(=O)=O | inactive |  |
| Fc1ccc2nc(C3CCCCN3Cc3nc(CC4CC4)no3)[nH]c2c1 (stereo unspecified) | inconclusive [inhibitor, full curve, poor fit] |  |
| Nc1cc(N)nc(SCCOc2ccccc2F)n1 | inactive |  |
| Cc1ccc(CNC(=O)Cc2ccc(-c3ccccc3)cc2)cc1 | inactive |  |

| Compound | Potency | activity change, negative = inhibition |
| --- | --- | --- |
| CCN(CC)S(=O)(=O)c1cccc(C(=O)OCC(=O)NCc2ccccc2OC)c1 | inconclusive [inhibitor, single point] |  |
| O=C1Nc2ccccc2SC1c1ccccc1 (stereo unspecified) | inconclusive [inhibitor, single point] |  |
| FC(F)(F)c1cccc(/C=N/NC(=S)NC2CCCCC2)c1 | inconclusive [inhibitor, single point] |  |
| COc1ccc(-c2cc(C)no2)cc1S(=O)(=O)NCc1cccc(C)c1 | inconclusive [inhibitor, single point] |  |
| CCCC(=O)OC/C(O)=C(\C#N)c1nc2ccccc2[nH]1 |  | inactive: -6.1% [at 5.75 µM] |
| O=C1CC(c2ccc(OCCCCCOc3ccc(C4CC(=O)NC4=O)cc3)cc2)C(=O)N1 (stereo unspecified) | inconclusive [inhibitor, partial curve, poor fit] |  |
| CSCCC(=O)N1CCC(n2nccc2NC(=O)CCCc2ccccc2)CC1 | inconclusive [inhibitor, single point] |  |
| Cc1ccc(C(=O)Nc2ncccc2O)cc1S(=O)(=O)N1CCCCC1 | inconclusive [inhibitor, single point] |  |
| CS(=O)(=O)c1ccccc1C(=O)Nc1ccccc1Cc1ccccc1 | inconclusive [inhibitor, partial curve] |  |
| O=C(CSc1nc(Cc2ccccc2)nc2ccccc12)c1ccc2c(c1)OCCO2 | active: 9.28 µM |  |
| CN(C)c1ccc(CN(C(=O)/C=C/c2ccccc2Cl)C2CCS(=O)(=O)C2)cc1 (stereo unspecified) | inconclusive [inhibitor, single point] |  |
| COC(=O)c1cc(NC(=O)Cc2coc3cc(OC)ccc23)cc(C(=O)OC)c1 | inconclusive [inhibitor, single point] |  |
| CCOC(=O)Cc1csc(NC(=S)NC(=O)c2ccccc2Br)n1 | inactive |  |
| O=C(Nc1ccc(C(F)(F)F)cc1)c1cccc(-n2cnnn2)c1 | active: 10.4 µM |  |
| CC(C)C[C@H]1CN=C(Nc2ccccc2)N1CC1CCCCC1 | inconclusive [inhibitor, partial curve] |  |
| CCN(CC(=O)Nc1ccc(NC(C)=O)cc1)C(=O)c1ccccc1SCC(=O)N1CCCC1 | inactive |  |
| CC(C)CCOc1cccc(OCC(=O)Nc2ccncc2)c1 | inactive |  |
| Cc1cc(C(=O)CSc2nnnn2C)c(C)n1C1CC1 | inactive |  |
| CCN1C(=O)[C@H]2[C@@H](c3ccc(C)cc3)N3C(=O)N(c4cccc(Br)c4)C(=O)[C@@]3(Cc3ccccc3)[C@H]2C1=O | inconclusive [inhibitor, single point] |  |
| O=C(C1=C(O)C(=O)N(CC2CCCO2)C1c1ccccc1F)c1ccco1 (stereo unspecified) | inactive |  |
| O=C(Nc1cccc(-n2cccn2)c1)C1CCCN(Cc2cc3ccccc3[nH]2)C1 (stereo unspecified) | inconclusive [inhibitor, single point] |  |
| COc1ccc(C2CC(=O)N(CC(=O)NCC3CCCO3)c3ccccc3S2)cc1 (stereo unspecified) | inactive |  |
| CNCCCOc1cc(C)cc(C)c1C | inactive |  |
